According to ChEMBL document CHEMBL1961873, “Compounds: GSK PKIS; Assays: Nanosyn kinase panel” (2012):
For part of these data: Shown are results outside the selection of strong results, which stands elsewhere. The entries are a selection whose mix differs from that of the whole data set.

What was measured:
[1] = target: Leukocyte tyrosine kinase receptor (Homo sapiens) (UniProt P29376); details: at 1 µM;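 further: each value is the mean inhibition of LTK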
[2] = target: Tyrosine-protein kinase Lyn (Homo sapiens) (UniProt P07948); details: at 0.1 µM
[3] = target: Tyrosine-protein kinase Lyn (Homo sapiens) (UniProt P07948); details: at 1 µM
[4] = target: Tyrosine-protein kinase Lyn (Homo sapiens) (UniProt P07948); details: at 0.1 µM; remark: listed apart in the source
[5] = target: Tyrosine-protein kinase Lyn (Homo sapiens) (UniProt P07948); details: at 1 µM; remark: listed apart in the source
[6] = target: T1, Tyrosine-protein kinase Mer (Homo sapiens) (UniProt Q12866); details: at 0.1 µM
T1 sequence (whole entry): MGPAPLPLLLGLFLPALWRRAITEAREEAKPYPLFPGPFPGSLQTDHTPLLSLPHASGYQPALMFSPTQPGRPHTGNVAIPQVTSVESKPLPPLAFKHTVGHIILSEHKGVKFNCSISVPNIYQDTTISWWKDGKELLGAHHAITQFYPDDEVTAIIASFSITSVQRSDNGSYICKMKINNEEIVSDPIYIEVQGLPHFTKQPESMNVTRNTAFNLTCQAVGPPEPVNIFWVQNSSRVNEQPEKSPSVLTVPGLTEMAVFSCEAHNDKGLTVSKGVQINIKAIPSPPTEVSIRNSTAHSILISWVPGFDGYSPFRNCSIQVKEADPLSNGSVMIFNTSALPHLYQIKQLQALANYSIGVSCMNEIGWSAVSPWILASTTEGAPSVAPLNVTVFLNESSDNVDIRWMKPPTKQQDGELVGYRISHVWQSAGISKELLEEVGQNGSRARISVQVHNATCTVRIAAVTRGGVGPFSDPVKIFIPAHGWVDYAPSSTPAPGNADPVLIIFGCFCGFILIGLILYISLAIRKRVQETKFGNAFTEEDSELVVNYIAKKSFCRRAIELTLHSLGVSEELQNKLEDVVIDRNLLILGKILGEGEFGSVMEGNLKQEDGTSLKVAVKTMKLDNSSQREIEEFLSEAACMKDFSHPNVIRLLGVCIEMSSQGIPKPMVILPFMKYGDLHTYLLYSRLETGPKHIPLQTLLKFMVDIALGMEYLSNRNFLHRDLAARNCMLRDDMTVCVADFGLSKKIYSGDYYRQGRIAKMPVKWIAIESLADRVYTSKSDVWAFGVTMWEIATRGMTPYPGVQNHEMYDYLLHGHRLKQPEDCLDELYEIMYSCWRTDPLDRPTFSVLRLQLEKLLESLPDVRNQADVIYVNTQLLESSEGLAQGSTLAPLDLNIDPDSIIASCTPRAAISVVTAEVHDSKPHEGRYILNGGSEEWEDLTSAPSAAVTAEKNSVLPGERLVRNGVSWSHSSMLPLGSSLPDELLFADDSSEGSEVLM

[7] = target: Hepatocyte growth factor receptor (Homo sapiens) (UniProt P08581); details: at 0.1 µM
[8] = target: Hepatocyte growth factor receptor (Homo sapiens) (UniProt P08581); details: at 1 µM
[9] = target: T2, Muscle, skeletal receptor tyrosine-protein kinase (Homo sapiens) (UniProt O15146); details: at 0.1 µM
T2 sequence (whole entry): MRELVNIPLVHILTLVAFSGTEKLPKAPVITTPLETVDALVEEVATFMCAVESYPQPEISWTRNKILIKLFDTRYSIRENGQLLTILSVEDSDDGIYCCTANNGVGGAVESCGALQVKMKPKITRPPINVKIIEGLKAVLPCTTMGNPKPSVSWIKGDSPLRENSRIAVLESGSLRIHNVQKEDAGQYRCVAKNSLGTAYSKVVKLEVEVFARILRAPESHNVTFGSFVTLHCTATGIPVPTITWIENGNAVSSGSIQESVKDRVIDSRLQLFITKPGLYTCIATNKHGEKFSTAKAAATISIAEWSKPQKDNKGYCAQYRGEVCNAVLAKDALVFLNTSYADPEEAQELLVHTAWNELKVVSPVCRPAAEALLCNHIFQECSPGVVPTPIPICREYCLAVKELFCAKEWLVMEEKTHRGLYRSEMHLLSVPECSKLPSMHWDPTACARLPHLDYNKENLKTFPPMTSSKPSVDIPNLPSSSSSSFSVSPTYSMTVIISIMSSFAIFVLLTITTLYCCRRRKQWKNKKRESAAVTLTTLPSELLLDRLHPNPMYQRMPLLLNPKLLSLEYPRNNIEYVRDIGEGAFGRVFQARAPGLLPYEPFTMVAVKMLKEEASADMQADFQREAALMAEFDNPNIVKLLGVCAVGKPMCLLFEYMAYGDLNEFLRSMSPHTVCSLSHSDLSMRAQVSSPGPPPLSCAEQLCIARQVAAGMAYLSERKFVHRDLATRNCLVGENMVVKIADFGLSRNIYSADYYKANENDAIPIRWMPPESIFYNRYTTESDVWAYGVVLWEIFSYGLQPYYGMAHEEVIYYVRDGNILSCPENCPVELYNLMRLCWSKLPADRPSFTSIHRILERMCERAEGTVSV

[10] = target: T2, Muscle, skeletal receptor tyrosine-protein kinase (Homo sapiens); details: at 1 µM
[11] = target: Platelet-derived growth factor receptor alpha (Homo sapiens) (UniProt P16234); details: at 0.1 µM
[12] = target: Platelet-derived growth factor receptor alpha (Homo sapiens) (UniProt P16234); details: at 1 µM
[13] = test system: Platelet-derived growth factor receptor alpha (Homo sapiens), P16234 [D842V]; details: at 0.1 µM
[14] = test system: Platelet-derived growth factor receptor alpha (Homo sapiens), P16234 [D842V]; details: at 1 µM
[15] = test system: Platelet-derived growth factor receptor alpha (Homo sapiens), P16234 [T674I]; details: at 0.1 µM
[16] = test system: Platelet-derived growth factor receptor alpha (Homo sapiens), P16234 [T674I]; details: at 1 µM
[17] = test system: Platelet-derived growth factor receptor alpha (Homo sapiens), P16234 [V561D]; details: at 0.1 µM
[18] = test system: Platelet-derived growth factor receptor alpha (Homo sapiens), P16234 [V561D]; details: at 1 µM
[19] = target: Platelet-derived growth factor receptor beta (Homo sapiens) (UniProt P09619); details: at 0.1 µM;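 further: reported value is the mean percent inhibition of the kinase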
[20] = target: T1, Tyrosine-protein kinase Mer (Homo sapiens); details: at 1 µM

UniProt P16234, sequence (P16234 whole entry): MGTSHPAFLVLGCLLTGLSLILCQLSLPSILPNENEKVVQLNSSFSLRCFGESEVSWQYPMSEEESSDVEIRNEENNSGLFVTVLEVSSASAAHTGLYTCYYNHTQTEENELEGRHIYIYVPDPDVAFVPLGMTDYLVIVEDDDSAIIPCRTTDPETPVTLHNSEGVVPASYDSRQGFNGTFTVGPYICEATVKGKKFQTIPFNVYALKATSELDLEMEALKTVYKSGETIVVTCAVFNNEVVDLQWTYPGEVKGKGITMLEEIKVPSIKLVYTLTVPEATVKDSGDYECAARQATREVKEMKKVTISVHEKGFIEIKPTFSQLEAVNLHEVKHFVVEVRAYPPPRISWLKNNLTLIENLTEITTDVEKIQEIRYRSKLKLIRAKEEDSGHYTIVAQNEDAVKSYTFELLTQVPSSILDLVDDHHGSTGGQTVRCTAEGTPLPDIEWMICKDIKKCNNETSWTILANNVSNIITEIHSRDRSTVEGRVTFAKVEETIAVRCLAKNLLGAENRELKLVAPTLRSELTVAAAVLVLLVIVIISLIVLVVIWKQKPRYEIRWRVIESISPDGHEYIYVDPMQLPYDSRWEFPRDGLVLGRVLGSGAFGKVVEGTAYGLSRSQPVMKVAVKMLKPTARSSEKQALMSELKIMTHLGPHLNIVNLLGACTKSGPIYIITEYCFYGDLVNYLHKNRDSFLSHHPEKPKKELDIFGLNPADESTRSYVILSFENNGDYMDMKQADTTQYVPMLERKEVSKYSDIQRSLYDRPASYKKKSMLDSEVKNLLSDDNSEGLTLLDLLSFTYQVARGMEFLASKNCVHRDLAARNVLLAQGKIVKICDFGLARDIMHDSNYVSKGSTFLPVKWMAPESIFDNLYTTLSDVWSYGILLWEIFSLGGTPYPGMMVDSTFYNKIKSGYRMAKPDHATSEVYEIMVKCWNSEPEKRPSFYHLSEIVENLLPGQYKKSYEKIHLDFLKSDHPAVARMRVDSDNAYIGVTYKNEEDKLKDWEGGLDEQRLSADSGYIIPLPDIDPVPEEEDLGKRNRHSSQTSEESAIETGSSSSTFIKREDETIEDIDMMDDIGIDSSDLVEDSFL
UniProt P29376, sequence (P29376 whole entry): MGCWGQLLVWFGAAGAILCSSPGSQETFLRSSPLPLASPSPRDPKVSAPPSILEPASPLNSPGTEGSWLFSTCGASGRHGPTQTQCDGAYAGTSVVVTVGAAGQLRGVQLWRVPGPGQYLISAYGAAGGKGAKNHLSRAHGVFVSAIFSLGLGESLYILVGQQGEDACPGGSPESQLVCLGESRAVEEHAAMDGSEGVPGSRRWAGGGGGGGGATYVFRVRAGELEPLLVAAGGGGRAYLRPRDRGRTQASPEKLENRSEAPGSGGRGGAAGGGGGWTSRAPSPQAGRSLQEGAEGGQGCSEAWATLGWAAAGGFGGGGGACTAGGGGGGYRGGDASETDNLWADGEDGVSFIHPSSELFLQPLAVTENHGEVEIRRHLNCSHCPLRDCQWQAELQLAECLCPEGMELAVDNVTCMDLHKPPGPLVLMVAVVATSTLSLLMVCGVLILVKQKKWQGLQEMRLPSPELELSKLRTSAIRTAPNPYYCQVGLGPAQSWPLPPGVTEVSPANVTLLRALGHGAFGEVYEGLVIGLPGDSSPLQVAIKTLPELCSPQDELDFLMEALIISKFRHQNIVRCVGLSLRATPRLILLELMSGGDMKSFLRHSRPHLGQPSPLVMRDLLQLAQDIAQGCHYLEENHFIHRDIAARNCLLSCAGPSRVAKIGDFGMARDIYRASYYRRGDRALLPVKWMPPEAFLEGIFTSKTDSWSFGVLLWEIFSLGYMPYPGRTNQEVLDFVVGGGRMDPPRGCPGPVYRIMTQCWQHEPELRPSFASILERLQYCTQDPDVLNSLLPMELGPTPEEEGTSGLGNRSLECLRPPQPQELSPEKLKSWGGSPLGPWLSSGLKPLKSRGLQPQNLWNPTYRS
UniProt P08581, sequence (P08581 whole entry): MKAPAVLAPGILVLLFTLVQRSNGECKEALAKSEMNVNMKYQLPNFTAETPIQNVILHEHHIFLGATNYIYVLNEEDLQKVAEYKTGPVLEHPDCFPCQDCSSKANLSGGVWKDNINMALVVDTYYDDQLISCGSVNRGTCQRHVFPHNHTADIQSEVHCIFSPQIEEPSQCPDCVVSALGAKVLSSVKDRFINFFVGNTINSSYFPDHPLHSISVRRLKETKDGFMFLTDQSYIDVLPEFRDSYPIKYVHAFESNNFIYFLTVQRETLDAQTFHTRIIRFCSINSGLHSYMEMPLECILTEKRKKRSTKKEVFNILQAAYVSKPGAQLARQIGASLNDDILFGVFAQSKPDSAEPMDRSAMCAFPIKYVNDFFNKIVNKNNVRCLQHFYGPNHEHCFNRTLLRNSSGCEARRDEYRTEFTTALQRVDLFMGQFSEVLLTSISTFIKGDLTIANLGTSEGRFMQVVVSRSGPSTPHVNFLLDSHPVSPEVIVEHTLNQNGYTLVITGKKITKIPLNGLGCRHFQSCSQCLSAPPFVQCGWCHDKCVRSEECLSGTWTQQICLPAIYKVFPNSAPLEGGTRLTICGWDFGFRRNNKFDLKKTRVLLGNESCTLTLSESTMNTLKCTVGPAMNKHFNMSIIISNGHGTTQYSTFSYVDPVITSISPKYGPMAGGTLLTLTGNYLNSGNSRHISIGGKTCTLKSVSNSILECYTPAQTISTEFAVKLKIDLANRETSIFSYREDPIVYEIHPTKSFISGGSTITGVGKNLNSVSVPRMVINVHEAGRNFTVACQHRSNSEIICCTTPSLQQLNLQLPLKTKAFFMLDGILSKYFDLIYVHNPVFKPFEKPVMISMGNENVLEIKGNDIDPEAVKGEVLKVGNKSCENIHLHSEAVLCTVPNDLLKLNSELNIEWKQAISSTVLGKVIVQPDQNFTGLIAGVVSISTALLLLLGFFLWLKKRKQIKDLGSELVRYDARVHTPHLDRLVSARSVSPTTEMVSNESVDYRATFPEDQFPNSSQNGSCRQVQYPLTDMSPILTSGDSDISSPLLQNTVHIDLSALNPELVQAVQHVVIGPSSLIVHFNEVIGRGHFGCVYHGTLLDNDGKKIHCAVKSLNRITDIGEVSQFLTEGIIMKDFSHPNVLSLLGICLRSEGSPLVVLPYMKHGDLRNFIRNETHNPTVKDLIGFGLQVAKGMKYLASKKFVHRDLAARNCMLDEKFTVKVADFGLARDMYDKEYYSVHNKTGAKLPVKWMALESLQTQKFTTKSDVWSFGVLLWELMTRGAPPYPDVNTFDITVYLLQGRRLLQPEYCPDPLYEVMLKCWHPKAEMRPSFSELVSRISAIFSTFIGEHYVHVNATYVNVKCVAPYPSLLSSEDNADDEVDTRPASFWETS
UniProt P09619, sequence (P09619 whole entry): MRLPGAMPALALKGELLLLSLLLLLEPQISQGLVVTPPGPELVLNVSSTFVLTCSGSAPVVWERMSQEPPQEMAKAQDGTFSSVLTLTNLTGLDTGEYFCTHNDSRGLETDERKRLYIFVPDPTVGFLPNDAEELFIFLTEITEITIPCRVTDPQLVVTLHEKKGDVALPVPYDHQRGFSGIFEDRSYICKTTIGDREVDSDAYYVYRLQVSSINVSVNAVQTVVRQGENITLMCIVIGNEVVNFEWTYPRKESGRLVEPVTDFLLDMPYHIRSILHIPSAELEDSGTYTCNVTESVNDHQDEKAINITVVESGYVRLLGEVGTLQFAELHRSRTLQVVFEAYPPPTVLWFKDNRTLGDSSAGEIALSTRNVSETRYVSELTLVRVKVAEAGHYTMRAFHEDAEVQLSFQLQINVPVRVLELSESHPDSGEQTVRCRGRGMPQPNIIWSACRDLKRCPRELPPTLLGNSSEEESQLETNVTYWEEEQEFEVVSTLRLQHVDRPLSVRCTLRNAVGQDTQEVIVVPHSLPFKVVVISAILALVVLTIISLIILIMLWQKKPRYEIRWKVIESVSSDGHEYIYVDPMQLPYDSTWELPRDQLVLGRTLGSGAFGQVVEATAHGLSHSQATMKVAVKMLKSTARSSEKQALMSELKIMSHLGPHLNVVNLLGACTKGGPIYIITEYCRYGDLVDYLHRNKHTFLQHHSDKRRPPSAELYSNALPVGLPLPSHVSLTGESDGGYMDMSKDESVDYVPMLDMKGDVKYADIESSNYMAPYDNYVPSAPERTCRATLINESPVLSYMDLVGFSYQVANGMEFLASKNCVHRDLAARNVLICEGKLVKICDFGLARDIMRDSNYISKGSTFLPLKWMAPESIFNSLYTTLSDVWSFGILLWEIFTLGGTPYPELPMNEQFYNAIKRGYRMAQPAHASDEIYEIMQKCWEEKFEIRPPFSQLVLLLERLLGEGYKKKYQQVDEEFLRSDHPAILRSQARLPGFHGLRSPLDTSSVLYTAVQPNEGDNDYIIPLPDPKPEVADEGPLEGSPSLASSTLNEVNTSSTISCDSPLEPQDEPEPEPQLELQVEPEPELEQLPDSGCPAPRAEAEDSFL
UniProt P07948, sequence (P07948 whole entry, looked up): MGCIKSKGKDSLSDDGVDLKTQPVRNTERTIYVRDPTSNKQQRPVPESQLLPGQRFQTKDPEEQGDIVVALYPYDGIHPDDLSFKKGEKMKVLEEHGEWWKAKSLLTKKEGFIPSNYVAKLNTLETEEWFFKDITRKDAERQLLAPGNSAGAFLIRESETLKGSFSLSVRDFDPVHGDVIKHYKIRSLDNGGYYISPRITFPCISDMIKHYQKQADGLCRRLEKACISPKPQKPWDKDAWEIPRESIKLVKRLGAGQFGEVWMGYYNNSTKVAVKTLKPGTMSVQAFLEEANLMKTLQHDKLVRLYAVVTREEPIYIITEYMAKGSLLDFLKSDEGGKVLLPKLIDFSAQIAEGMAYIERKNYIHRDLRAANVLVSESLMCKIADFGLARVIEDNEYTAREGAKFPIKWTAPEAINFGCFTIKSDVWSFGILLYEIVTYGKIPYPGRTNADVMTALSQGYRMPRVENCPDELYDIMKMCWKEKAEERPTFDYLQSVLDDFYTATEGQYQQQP

Row | Structure (SMILES) | inhibition [1] [%] | inhibition [2] [%] | inhibition [3] [%] | inhibition [4] [%] | inhibition [5] [%] | inhibition [6] [%] | inhibition [7] [%] | inhibition [8] [%] | inhibition [9] [%] | inhibition [10] [%] | inhibition [11] [%] | inhibition [12] [%] | inhibition [13] [%] | inhibition [14] [%] | inhibition [15] [%] | inhibition [16] [%] | inhibition [17] [%] | inhibition [18] [%] | inhibition [19] [%] | inhibition [20] [%]
1 | COc1ccccc1Oc1nccc(-c2c(-c3ccc(F)cc3)ncn2C2CCNCC2)n1 | 3.32 | 6.36 | 5.75 | 3.05 | 3.76 | 0.06 | 19.6 | 8.14 | 3.29 | 3.71 | 9.26 | 13.9 | 3.39 | 4.03 | 3.65 | 9.72 | 4.97 | 5.27 | 8.12 | 
2 | Fc1ccc(-c2ncn(C3CCNCC3)c2-c2ccnc(Oc3ccc(Cl)cc3)n2)cc1 | 0.46 | 0.7 | 1.01 | 0.36 | 0.75 | -0.42 | 11.5 | -0.9 | 2.45 | 1.51 | 2.56 | 4.67 | 3.1 | 2.35 | 1.24 | 2.52 | 5.65 | 4.01 | 2.08 | 4.01
3 | Cc1cccc(Oc2nccc(-c3c(-c4ccc(F)cc4)ncn3C3CCNCC3)n2)c1C | 4.52 | 3.92 | 5.54 | 2.25 | 2.21 | 0 | 5.13 | 6.5 | 2.7 | 1.7 | 7.03 | 10.4 | 2.45 | 3.93 | 3.47 | 5.02 | 3.63 | 3.86 | 4.28 | 2.26
4 | CC(C)(C)c1ccc(Oc2nccc(-c3c(-c4ccc(F)cc4)ncn3C3CCNCC3)n2)cc1 | 4.25 | 4.8 | 7.06 | 2.74 | 4.08 | 1.05 | 2.88 | 7.63 | 2.51 | 4.98 | 5.23 | 12.2 | 3.92 | 6.46 | 3.57 | 8.88 | 5.04 | 7.97 | 3.31 | 4.15
5 | O=C1NC(=O)C(c2cccc([N+](=O)[O-])c2)=C1Nc1cc(Cl)c(O)c(Cl)c1 | 1.2 | 2.51 | 0.9 | 1.46 | 2.23 | -0.43 | 6.61 | 6.2 | 0.61 | -3.35 | 3.16 | 4.4 | 2.41 | 3.86 | 3.38 | 2.92 | 2.5 | 1.7 | -0.34 | 0.18
6 | O=C1NC(=O)C(c2ccccc2)=C1Nc1ccccc1 | 8.17 | 5.54 | 8.24 | 7.53 | 5.49 | 4.87 | 2.55 | 7.96 | 2.18 | 5 | 10.8 | 19.4 | 2.38 | 4.8 | 6.76 | 9.77 | 6.64 | 4.67 | 4.86 | 2.47
7 | Fc1ccc(-c2ncn(C3CCNCC3)c2-c2ccnc(Oc3cccc(F)c3)n2)cc1 | 3.34 | 6.08 | 6.98 | 3.39 | 4.79 | 2.09 | 9.18 | 2.7 | 3.69 | 7.23 | 8.78 | 12.4 | 4.11 | 3.6 | 2.81 | 6.48 | 4.4 | 6.11 | 8.14 | 
